Results from patent publication EP4692114A1, “CALCITONIN ANALOGUE, AND DERIVATIVE THEREOF AND USE THEREOF” (Hangzhou Sciwind Biosciences Co., Ltd., priority 2023, dated 2024).
At least one peptide structure holds a part that was inferred or is arguable (an end, a ring closure or a residue). *1 amine or outer side, *2 acyl side, *3 side chain or, on linkers, in order; H or OH if unused. Where a SMILES comes first, the peptide text is derived from it. The star is where a group is joined. C20 diacid = O=C(O)CCCCCCCCCCCCCCCCCCC(=O)*; γGlu = O=C(O)[C@H](CCC(=O)[*:2])N[*:1]

Legend:
human amylin receptors = target: T1, human amylin receptors (Homo sapiens, UniProt O60896+P30988); assay: Luciferase assay of amylin (amylin receptor/CRE-luc cell line); type: cell-based; settings: stably transfected amylin receptor/CRE-luc CHO cells (CHO-K1/Gal5/AMY3), 24 hours incubation, luciferase readout
T1 sequence (P30988 25-474): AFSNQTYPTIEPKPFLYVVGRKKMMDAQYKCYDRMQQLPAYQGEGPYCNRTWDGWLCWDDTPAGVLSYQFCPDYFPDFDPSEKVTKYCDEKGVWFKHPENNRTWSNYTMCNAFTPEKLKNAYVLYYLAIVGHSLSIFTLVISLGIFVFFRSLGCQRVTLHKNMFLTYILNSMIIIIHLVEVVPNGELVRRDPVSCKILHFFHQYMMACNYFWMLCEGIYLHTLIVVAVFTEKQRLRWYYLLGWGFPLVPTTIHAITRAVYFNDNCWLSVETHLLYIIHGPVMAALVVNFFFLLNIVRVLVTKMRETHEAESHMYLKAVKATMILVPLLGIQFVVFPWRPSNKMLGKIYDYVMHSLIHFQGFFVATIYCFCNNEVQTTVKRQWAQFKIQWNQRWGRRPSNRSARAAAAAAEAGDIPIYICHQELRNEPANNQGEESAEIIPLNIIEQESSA
T1 sequence (O60896 24-148 partner): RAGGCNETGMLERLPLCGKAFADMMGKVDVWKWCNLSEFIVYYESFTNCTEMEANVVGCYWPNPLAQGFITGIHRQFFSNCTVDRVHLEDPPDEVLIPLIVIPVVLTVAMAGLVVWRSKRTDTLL

[1] = Heat accelerated stability assay under a neutral condition; type: physicochemical; settings: pH about 7.4, 40°C; for Changes in characteristics or properties, 0d / Changes in characteristics or properties, 7d: 1 mg/mL, phosphate; for Concentration change (7d-0d)/%: Day 7 vs Day 0, reversed phase chromatography; for Purity Change% (7d-0d): purity from reversed phase chromatography-214 nm, Day 7 vs Day 0
Description: The lyophilized powder (1 mg/mL) of calcitonin analogues or derivatives prepared in accordance with the method of Example 1 were mixed with sodium dihydrogen phosphate (1.42 mg/mL) and dissolved in ultrapure water in the indicated mass-volume ratios. After adjusting pH to about 7.4 with hydrochloric acid/sodium hydroxide, the solution was filtered into a sterilized vial in a clean bench using a 0.22 µm sterile filter. The vial was then capped and placed into the stability test chamber at 40°C. Detections were made on Days 7 (7d) and 26 (26d), and during the assay, changes in the characteristics and properties of the polypeptides were observed and recorded. The sample was then centrifuged for 3 min at 10000 rpm at 4°C, and the supernatant was transferred to a liquid phase sample vial for detecting the concentration and purity of the polypeptides using liquid phase chromatography described as below, wherein the concentration of the polypeptide = peak area/injection volume/extinction coefficient/60×flow rate, and the purity of the polypeptide = target peak area/total peak area× 100%.
Conditions of the reversed phase chromatography Flow rate: 1.0 ml/min; Autosampler temperature: 15°C; Column temperature: 25°C; Detection wavelengths: 280 nm and 214 nm; Mobile phase A: 100% H2O+0.05% TFA; Mobile phase B: 100% ACN; and Gradient of elution listed in Table 4: Table 4. Listing of the gradient of elution in the liquid phase chromatography
Results were shown below in Tables 5, 6, and 7. A difference of more than 5% in content as compared with the initial value was typically assumed (for example, as prescribed by the Chinese Pharmacopeia (2020 Edition)) to be a significant change. Within a reasonable margin of error, a decrease of less than 1% from the initial value to the detected content is denoted as "no change" below. Table 5. Changes in characteristics or properties in the heat accelerated stability assay

Row | Compound | EC50 (human amylin receptors) [nM] | Changes in characteristics or properties, 0d [1] | Changes in characteristics or properties, 7d [1] | Concentration change (7d-0d)/% [1] | Purity Change% (7d-0d) [1]
1 | CC[C@H](C)[C@H](NC(=O)CC[C@H](NC(=O)CCCCCCCCCCCCCCCCCCC(=O)O)C(=O)O)C(=O)N[C@@H](CO)C(=O)N[C@@H](CCC(N)=O)C(=O)N[C@@H](CC(C)C)C(=O)N[C@@H](CO)C(=O)N[C@H](C(=O)N[C@H](C(=O)N[C@H](C(=O)N[C@@H](CC(C)C)C(=O)NCC(=O)N[C@@H](CCCNC(=N)N)C(=O)N[C@@H](CC(C)C)C(=O)N[C@@H](CO)C(=O)N[C@@H](CCC(N)=O)C(=O)N[C@@H](CCC(=O)O)C(=O)N[C@@H](CC(C)C)C(=O)N[C@@H](Cc1c[nH]cn1)C(=O)N[C@@H](CCCNC(=N)N)C(=O)N[C@@H](CC(C)C)C(=O)N[C@@H](CCC(N)=O)C(=O)N[C@@H](CC(=O)O)C(=O)N[C@@H](Cc1ccc(O)cc1)C(=O)N1CCC[C@H]1C(=O)N[C@@H](CCCNC(=N)N)C(=O)N[C@H](C(=O)N[C@@H](CC(=O)O)C(=O)N[C@H](C(=O)NCC(=O)N[C@@H](CO)C(=O)NCC(=O)N[C@@H](CO)C(=O)N1CCC[C@H]1C(N)=O)C(C)C)[C@@H](C)O)C(C)C)[C@@H](C)CC)[C@@H](C)O [M27] ({C20 diacid-γGlu}-ISQLSTIVLGRLSQELHRLQDYPRTDVGSGSP-NH2) | 0.016 | Clear | Clear | No change (a decrease of less than 1% from the initial value to the detected content is denoted as "no change") | No change (a decrease of less than 1% from the initial value to the detected content is denoted as "no change")
2 | CC(C)C[C@H](NC(=O)[C@H](CCCNC(=N)N)NC(=O)CNC(=O)[C@H](CC(C)C)NC(=O)[C@@H](NC(=O)[C@H](CO)NC(=O)[C@@H](NC(=O)[C@H](CO)NC(=O)[C@H](CC(C)C)NC(=O)[C@H](CCC(N)=O)NC(=O)[C@H](CO)NC(=O)[C@H](C)NC(=O)CC[C@H](NC(=O)CCCCCCCCCCCCCCCCCCC(=O)O)C(=O)O)[C@@H](C)O)C(C)C)C(=O)N[C@@H](CO)C(=O)N[C@@H](CCC(N)=O)C(=O)N[C@@H](CCC(=O)O)C(=O)N[C@@H](CC(C)C)C(=O)N[C@@H](Cc1c[nH]cn1)C(=O)N[C@@H](CCCNC(=N)N)C(=O)N[C@@H](CC(C)C)C(=O)N[C@@H](CCC(N)=O)C(=O)N[C@@H](CC(=O)O)C(=O)N[C@@H](Cc1ccc(O)cc1)C(=O)N1CCC[C@H]1C(=O)N[C@@H](CCCNC(=N)N)C(=O)N[C@H](C(=O)N[C@@H](CC(=O)O)C(=O)N[C@H](C(=O)NCC(=O)N[C@@H](CO)C(=O)NCC(=O)N[C@@H](CO)C(=O)N1CCC[C@H]1C(N)=O)C(C)C)[C@@H](C)O [M29] ({C20 diacid-γGlu}-ASQLSTSVLGRLSQELHRLQDYPRTDVGSGSP-NH2) | 0.017 | Clear | Clear | No change (a decrease of less than 1% from the initial value to the detected content is denoted as "no change") | No change (a decrease of less than 1% from the initial value to the detected content is denoted as "no change")
